This assay deals with MLKL phosphorylation, HT29-L23 human colorectal adenocarcinoma cells. Put plainly: cells. The following applies: read-out: pMLKL HCS Cell Assay (IC50, uM).
Turning to `COc1ncc(-c2cc(C(F)(F)F)c3c(N)ncnn23)cc1C(=O)N[C@@H]1CN(Cc2cccc(=O)[nH]2)C[C@@H]1F` [Example 1380, 5-[4-amino-5-(trifluoromethyl)-pyrrolo[2,1-f][1,2,4]triazin-7-yl]-N-[(3R,4S)-4-fluoro-1-[(6-oxo-1,6-dihydropyridin-2-yl)methyl]pyrrolidin-3-yl]-2-methoxypyridine-3-carbox-amide], the IC50 stood at 0.242 µM.
The same measure for `COc1ncc(-c2cc(CN3CCC(F)(F)CC3)c3c(N)ncnn23)cc1C(=O)N[C@@H]1CN(C(=O)c2ccccc2F)C[C@@H]1F` [Example 1626, 5-{4-amino-5-[(4,4-difluoropiperidin-1-yl)methyl]pyrrolo[2,1-f][1,2,4]triazin-7-yl}-N-[(3R,4S)-4-fluoro-1-(2-fluorobenzoyl)pyrrolidin-3-yl]-2-methoxypyridine-3-carboxamide]: 0.00091 µM; for `Cc1nc(C)c(-c2cc(C(F)(F)F)c3c(N)ncnn23)cc1C(=O)N[C@@H]1CN(C(=O)CC(C)C(F)(F)F)C[C@@H]1F` (stereo partly drawn) [Example 1187, 5-[4-amino-5-(trifluoromethyl)pyrrolo[2,1-f][1,2,4]triazin-7-yl]-N-[(3R,4S)-4-fluoro-1-(4,4,4-trifluoro-3-methylbutanoyl)pyrrolidin-3-yl]-2,6-dimethylpyridine-3-carboxamide]: 0.013 µM.
As to `CC(C)(O)C(=O)N1C[C@H](F)[C@H](NC(=O)c2cc(-c3cc(C(F)(F)F)c4c(N)ncnn34)ccc2Cl)C1` [Example 929, 5-[4-amino-5-(trifluoromethyl)pyrrolo[2,1-f][1,2,4]triazin-7-yl]-2-chloro-N-[(3R,4S)-4-fluoro-1-(2-hydroxy-2-methylpropanoyl)pyrrolidin-3-yl]benzamide], the IC50 turned out to be 0.05 µM.
For `[2H]C([2H])([2H])Oc1ncc(-c2cc(CN3CC(F)(F)C3)c3c(N)ncnn23)cc1C(=O)N[C@@H]1CN(C(=O)C2CC2(F)F)C[C@@H]1F` (stereo partly drawn) [Example 1287, 5-{4-amino-5-[(3,3-difluoroazetidin-1-yl)methyl]pyrrolo[2,1-f][1,2,4]triazin-7-yl}-N-[(3R,4S)-1-(2,2-difluorocyclopropanecarbonyl)-4-fluoropyrrolidin-3-yl]-2-(methoxy-d3)nicotinamide], the IC50 worked out at 0.00075 µM.
The same measure for `COc1ncc(-c2cc(C(F)(F)F)c3c(N)ncnn23)cc1C(=O)Nc1cc(Cl)n(Cc2ccccc2)n1` [Example 1847, 5-(4-amino-5-(trifluoromethyl)pyrrolo[2,1-f][1,2,4]triazin-7-yl)-N-(1-benzyl-5-chloro-1H-pyrazol-3-yl)-2-methoxynicotinamide]: 0.029 µM; for `[2H]C([2H])([2H])Oc1ncc(-c2cc(CN3CC(F)(F)C3)c3c(N)ncnn23)cc1C(=O)N[C@@H]1CN(S(=O)(=O)c2ccc(F)cc2)C[C@@H]1F` [Example 1280, 5-{4-amino-5-[(3,3-difluoroazetidin-1-yl)methyl]pyrrolo[2,1-f][1,2,4]triazin-7-yl}-N-[(3R,4S)-4-fluoro-1-(4-fluorobenzenesulfonyl)pyrrolidin-3-yl]-2-(methoxy-d3)nicotinamide]: 0.00032 µM; for `Cc1cc(C)c(-c2cc(C(F)(F)F)c3c(N)ncnn23)cc1C(=O)N[C@@H]1CN(C(=O)C2CCOC2)C[C@@H]1F` (stereo partly drawn) [Example 533, 5-[4-amino-5-(trifluoromethyl)pyrrolo[2,1-f][1,2,4]triazin-7-yl]-N-[(3R,4S)-4-fluoro-1-(oxolane-3-carbonyl)pyrrolidin-3-yl]-2,4-dimethylbenzamide]: 0.334 µM.
The same measure for `Cc1ncc(-c2cc(C(F)(F)F)c3c(N)ncnn23)cc1C(=O)NCCN1CCCC(c2ccccc2)C1` (centres unmarked) [Example 179, 5-[4-amino-5-(trifluoromethyl)pyrrolo[2,1-f][1,2,4]triazin-7-yl]-2-methyl-N-[2-(3-phenylpiperidin-1-yl)ethyl]pyridine-3-carboxamide]: 0.048 µM; for `COc1ncc(-c2cc(C(F)(F)F)c3c(N)ncnn23)cc1C(=O)NC1CN(CCC2CC2)CC1F` (racemic) [Example 190, 5-[4-amino-5-(trifluoromethyl)pyrrolo[2,1-f][1,2,4]triazin-7-yl]-N-[1-(2-cyclopropylethyl)-4-fluoropyrrolidin-3-yl]-2-methoxypyridine-3-carboxamide]: 0.037 µM; for `CCc1c(F)cc(-c2cc(C(F)(F)F)c3c(N)ncnn23)cc1C(=O)N[C@@H]1CN(C(=O)c2ccccc2F)C[C@@H]1F` [Example 645, 5-[4-amino-5-(trifluoromethyl)pyrrolo[2,1-f][1,2,4]triazin-7-yl]-2-ethyl-3-fluoro-N-[(3R,4S)-4-fluoro-1-(2-fluorobenzoyl)pyrrolidin-3-yl]benzamide]: 0.024 µM.
The same measure for `COc1ncc(-c2cc(CN3CC(C(F)(F)F)C3)c3c(N)ncnn23)cc1C(=O)N[C@@H]1CN(C(=O)C2CC(F)(F)C2)C[C@@H]1F` [Example 1552, 5-(4-amino-5-{[3-(trifluoromethyl)azetidin-1-yl]methyl}pyrrolo[2,1-f][1,2,4]triazin-7-yl)-N-[(3R,4S)-1-(3,3-difluorocyclobutanecarbonyl)-4-fluoropyrrolidin-3-yl]-2-methoxypyridine-3-carboxamide]: 0.0097 µM; for `COc1ncc(-c2cc(C(F)(F)F)c3c(N)ncnn23)cc1C(=O)N[C@@H]1CN(C(=O)C(C)(C)CO)C[C@@H]1F` [Example 1676, 5-(4-amino-5-(trifluoromethyl)pyrrolo[2,1-f][1,2,4]triazin-7-yl)-N-((3R,4S)-4-fluoro-1-(3-hydroxy-2,2-dimethylpropanoyl)pyrrolidin-3-yl)-2-methoxynicotinamide]: 0.056 µM; for `COc1ncc(-c2c(-c3nnn(C)n3)cc3c(N)ncnn23)cc1C(=O)N[C@@H]1CN(C(=O)[C@@](C)(O)C(F)(F)F)C[C@@H]1F` [Example 545, 5-(4-amino-6-(2-methyl-2H-tetrazol-5-yl)pyrrolo[2,1-f][1,2,4]triazin-7-yl)-N-((3R,4S)-4-fluoro-1-((R)-3,3,3-trifluoro-2-hydroxy-2-methylpropanoyl)pyrrolidin-3-yl)-2-methoxynicotinamide]: 0.33 µM.
As to `Cc1ccc(-c2cc(CN3CCC(C(F)(F)F)CC3)c3c(N)ncnn23)cc1C(=O)N[C@@H]1CN(C(=O)[C@@](C)(O)C(F)(F)F)C[C@@H]1F` [Example 1647, 5-(4-amino-5-{[4-(trifluoromethyl)piperidin-1-yl]methyl}pyrrolo[2,1-f][1,2,4]triazin-7-yl)-N-[(3R,4S)-4-fluoro-1-[(2R)-3,3,3-trifluoro-2-hydroxy-2-methylpropanoyl]pyrrolidin-3-yl]-2-methylbenzamide], the IC50 stood at 0.00086 µM.
The same measure for `C[C@@](O)(C(=O)N1C[C@H](F)[C@H](NC(=O)c2cc(-c3cc(C(F)(F)F)c4c(N)ncnn34)ccc2C(F)(F)F)C1)C(F)(F)F` [Example 904, 5-[4-amino-5-(trifluoromethyl)pyrrolo[2,1-f][1,2,4]triazin-7-yl]-N-[(3R,4S)-4-fluoro-1-[(28)-3,3,3-trifluoro-2-hydroxy-2-methylpropanoyl]pyrrolidin-3-yl]-2-(trifluoromethyl)benzamide]: 0.015 µM; for `COc1ccc(-c2cc(C(F)(F)F)c3c(N)ncnn23)cc1C(=O)N[C@@H]1CN(C(=O)C2(F)CC2)C[C@@H]1F` [Example 1127, 5-[4-amino-5-(trifluoromethyl)pyrrolo[2,1-f][1,2,4]triazin-7-yl]-N-[(3R,4S)-4-fluoro-1-(1-fluorocyclopropanecarbonyl)pyrrolidin-3-yl]-2-methoxybenzamide]: 0.014 µM; for `Cc1cc(F)c(-c2cc(C(F)(F)F)c3c(N)ncnn23)cc1C(=O)N[C@@H]1CN(C(=O)c2cccc(F)c2Cl)C[C@@H]1F` [Example 810, 5-[4-amino-5-(trifluoromethyl)pyrrolo[2,1-f][1,2,4]triazin-7-yl]-N-[(3R,4S)-1-(2-chloro-3-fluorobenzoyl)-4-fluoropyrrolidin-3-yl]-4-fluoro-2-methylbenzamide]: 0.0039 µM.
The same measure for `COc1cc(C(=O)N[C@@H]2CN(C(=O)C3CC(F)(F)C3)C[C@@H]2F)cc(-c2cc(C(F)(F)F)c3c(N)ncnn23)c1` [Example 584, 3-[4-amino-5-(trifluoromethyl)pyrrolo[2,1-f][1,2,4]triazin-7-yl]-N-[(3R,4S)-1-(3,3-difluorocyclobutanecarbonyl)-4-fluoropyrrolidin-3-yl]-5-methoxybenzamide]: 0.01 µM.
Next, `C[C@@](O)(C(=O)N1C[C@H](F)[C@H](NC(=O)c2cc(-c3cc(C(F)(F)F)c4c(N)ncnn34)ccc2OC(F)(F)F)C1)C(F)(F)F` [Example 1061, 5-[4-amino-5-(trifluoromethyl)pyrrolo[2,1-f][1,2,4]triazin-7-yl]-N-[(3R,4S)-4-fluoro-1-[(2R)-3,3,3-trifluoro-2-hydroxy-2-methylpropanoyl]pyrrolidin-3-yl]-2-(trifluoromethoxy)benzamide]: 0.0071 µM; `COc1ncc(-c2cc(C(F)(F)F)c3c(N)ncnn23)cc1C(=O)N[C@@H]1CN(C(=O)OCCCF)C[C@@H]1F` [Example 1445, 3-fluoropropyl (3R,4S)-3-{5-[4-amino-5-(trifluoromethyl)pyrrolo[2,1-f][1,2,4]triazin-7-yl]-2-methoxypyridine-3-amido}-4-fluoropyrrolidine-1-carboxylate]: 0.0076 µM; `COc1ncc(-c2cc(C(F)(F)F)c3c(N)ncnn23)cc1C(=O)N[C@H]1CCN(C(=O)c2ccccc2)C1` [Example 121, 5-[4-amino-5-(trifluoromethyl)pyrrolo[2,1-f][1,2,4]triazin-7-yl]-N-[(3S)-1-benzoylpyrrolidin-3-yl]-2-methoxypyridine-3-carboxamide]: 0.13 µM.
For the molecule `Nc1ncnn2c(-c3ccc(OC(F)F)c(C(=O)N[C@@H]4CN(C(=O)CC(F)(F)F)C[C@@H]4F)c3)cc(C(F)(F)F)c12` [Example 1082, 5-[4-amino-5-(trifluoromethyl)pyrrolo[2,1-f][1,2,4]triazin-7-yl]-2-(difluoromethoxy)-N-[(3R,4S)-4-fluoro-1-(3,3,3-trifluoropropanoyl)pyrrolidin-3-yl]benzamide], the IC50 was found to be 0.03 µM.

The values are drawn from patent US11618753B2 (priority 2018, dated 2023).
